{"source": "PubChem BioAssay AID504333", "about": "(National Center for Advancing Translational Sciences (NCATS), 2011)", "note": "About 16,000 (4.4%) of roughly 360,000 compounds were called active. Inconclusive means that the source gave no clear call. Such entries were picked first, then a sample of the others. The call rests on the fitted dose curve; in most records, active means well fitted inhibition curve with a large enough effect; inconclusive means small, poorly fitted or top-dose-only effect; inactive means no such curve, though single readings can be large or run the other way. Potencies beside an inconclusive call are fits to weak or partial responses and may not hold up. Potency means the concentration at half of the fitted maximal effect; tags describe the fitted curve by direction and shape.", "data": [{"target": "Bromodomain adjacent to zinc finger domain protein 2B (Homo sapiens) (UniProt Q9UIF8)", "sequence (Q9UIF8 whole entry, looked up, the tested form may be a part)": "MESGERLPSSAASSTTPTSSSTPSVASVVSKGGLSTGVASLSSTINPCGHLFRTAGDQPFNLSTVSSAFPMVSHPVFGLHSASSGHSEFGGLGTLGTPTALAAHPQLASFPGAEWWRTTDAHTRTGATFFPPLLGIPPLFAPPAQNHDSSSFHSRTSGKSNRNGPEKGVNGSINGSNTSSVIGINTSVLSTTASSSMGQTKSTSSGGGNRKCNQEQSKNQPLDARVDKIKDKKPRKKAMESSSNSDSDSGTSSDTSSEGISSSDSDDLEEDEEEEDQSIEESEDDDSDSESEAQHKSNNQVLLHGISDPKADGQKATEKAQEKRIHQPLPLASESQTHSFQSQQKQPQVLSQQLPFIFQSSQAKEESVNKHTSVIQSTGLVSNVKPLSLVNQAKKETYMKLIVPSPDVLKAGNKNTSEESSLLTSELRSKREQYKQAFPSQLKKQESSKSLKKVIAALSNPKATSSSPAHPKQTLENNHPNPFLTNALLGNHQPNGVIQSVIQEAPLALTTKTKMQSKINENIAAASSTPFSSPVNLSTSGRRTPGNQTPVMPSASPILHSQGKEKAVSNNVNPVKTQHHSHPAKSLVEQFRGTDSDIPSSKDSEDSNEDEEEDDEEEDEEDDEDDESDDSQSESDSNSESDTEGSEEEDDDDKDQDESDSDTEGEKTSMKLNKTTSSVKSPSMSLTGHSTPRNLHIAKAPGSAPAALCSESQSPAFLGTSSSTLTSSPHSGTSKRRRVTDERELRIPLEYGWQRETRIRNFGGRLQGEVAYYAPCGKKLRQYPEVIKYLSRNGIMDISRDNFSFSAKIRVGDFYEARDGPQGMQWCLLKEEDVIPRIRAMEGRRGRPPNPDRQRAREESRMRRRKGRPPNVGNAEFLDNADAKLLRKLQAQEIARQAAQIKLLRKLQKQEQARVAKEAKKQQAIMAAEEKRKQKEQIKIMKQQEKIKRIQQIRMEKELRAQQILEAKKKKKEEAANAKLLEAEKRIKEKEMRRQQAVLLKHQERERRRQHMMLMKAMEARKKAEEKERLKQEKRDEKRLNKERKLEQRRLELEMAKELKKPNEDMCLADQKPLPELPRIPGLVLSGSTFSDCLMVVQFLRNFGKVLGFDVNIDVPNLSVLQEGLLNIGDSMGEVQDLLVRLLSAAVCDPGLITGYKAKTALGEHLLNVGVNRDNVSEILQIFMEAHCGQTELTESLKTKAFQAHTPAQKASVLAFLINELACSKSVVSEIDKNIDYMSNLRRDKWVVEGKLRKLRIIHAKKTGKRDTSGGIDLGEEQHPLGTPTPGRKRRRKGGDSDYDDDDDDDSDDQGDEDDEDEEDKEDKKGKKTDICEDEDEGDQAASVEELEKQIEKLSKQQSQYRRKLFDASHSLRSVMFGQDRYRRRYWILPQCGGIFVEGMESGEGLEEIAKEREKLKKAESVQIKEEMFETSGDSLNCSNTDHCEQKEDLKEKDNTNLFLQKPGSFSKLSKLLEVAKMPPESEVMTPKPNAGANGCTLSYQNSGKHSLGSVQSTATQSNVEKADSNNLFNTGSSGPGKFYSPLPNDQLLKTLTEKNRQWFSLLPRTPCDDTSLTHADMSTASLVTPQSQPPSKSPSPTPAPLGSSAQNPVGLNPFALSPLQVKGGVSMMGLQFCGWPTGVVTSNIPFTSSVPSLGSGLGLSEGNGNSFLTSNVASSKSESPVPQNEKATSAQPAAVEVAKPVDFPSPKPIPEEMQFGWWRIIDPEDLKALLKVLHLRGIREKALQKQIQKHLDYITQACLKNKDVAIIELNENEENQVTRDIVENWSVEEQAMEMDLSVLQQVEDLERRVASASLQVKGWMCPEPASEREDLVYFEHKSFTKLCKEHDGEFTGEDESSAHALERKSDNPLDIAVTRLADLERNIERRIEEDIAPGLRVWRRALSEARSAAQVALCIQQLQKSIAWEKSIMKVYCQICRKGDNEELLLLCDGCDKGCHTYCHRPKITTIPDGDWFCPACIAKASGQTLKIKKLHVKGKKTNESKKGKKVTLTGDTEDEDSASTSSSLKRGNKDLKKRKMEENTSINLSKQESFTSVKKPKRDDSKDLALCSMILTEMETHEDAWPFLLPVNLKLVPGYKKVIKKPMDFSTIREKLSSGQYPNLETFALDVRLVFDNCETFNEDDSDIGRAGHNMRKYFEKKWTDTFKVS", "test": "qHTS Assay for Inhibitors of BAZ2B; further: nearly all actives have a fitted effect of over 60% in size", "settings": "AlphaScreen BAZ2B-H3K14Ac peptide displacement; series mostly up to 114 µM", "summary_of_the_method": "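AlphaScreen luminescence quantifies BAZ2B engagement of H3K14Ac peptide; the protein and biotinylated peptide are both at 50 nM final, buffer PBS pH 7.4 with 0.01% Tween-20, all steps at room temperature.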", "values": [{"smiles": "CCc1ccc(N=C2NC(=O)/C(=C/c3ccc(OCC(=O)O)c(OC)c3)S2)cc1", "Potency": "active: 7.08 µM"}, {"smiles": "CCCN1C(=O)/C(=C\\c2ccncc2)SC1=Nc1ccccc1", "Potency": "inconclusive: 35.5 µM [inhibitor, partial curve]"}, {"smiles": "Cc1ccccc1SCc1noc(C(=O)NC(C)C)c1C(=O)O", "Potency": "inconclusive: 79.4 µM [inhibitor, single point]"}, {"smiles": "COc1ccc(CNC(=O)CCc2cn(C)c3ccccc23)cc1", "Potency": "inconclusive: 79.4 µM [inhibitor, single point]"}, {"smiles": "O=S(=O)(c1ccc2nc(COc3ccccc3)[nH]c2c1)N1CCOCC1", "Potency": "inconclusive: 89.1 µM [inhibitor, single point]"}, {"smiles": "O=C(O)[C@@H]1CC(O)CN1C(=O)CCc1c[nH]c2ccccc12", "note": "(stereo not given in full)", "Potency": "inactive"}, {"smiles": "CCOc1ccc2oc(C(=O)N(CC)CC(=O)Nc3c(F)cccc3F)c(C)c2c1", "Potency": "inconclusive: 100 µM [inhibitor, single point]"}, {"smiles": "Cc1cc2n(c1)CCn1c(C)ccc1-2", "Potency": "inconclusive: 89.1 µM [inhibitor, single point]"}, {"smiles": "COc1ccc(S(=O)(=O)N2CCC[C@H]2C(=O)NC2=NCCS2)cc1", "Potency": "inactive"}, {"smiles": "COc1ccc(C(=O)NCC(c2ccco2)N2CCc3ccccc32)c(OC)c1", "note": "(stereo not given)", "Potency": "inconclusive: 44.7 µM [inhibitor, partial curve]"}, {"smiles": "Cc1ccc(/C=N/Nc2cn[nH]c(=O)n2)o1", "Potency": "active: 39.8 µM"}, {"smiles": "O=C(CCc1nc2ccccc2s1)Nc1cccnc1", "Potency": "inconclusive: 79.4 µM [inhibitor, single point]"}, {"smiles": "O=C1OC(c2cccs2)=N/C1=C/c1ccc(-c2cccc(C(=O)O)c2)o1", "Potency": "active: 25.1 µM"}, {"smiles": "Oc1[nH]c2ccccc2c1C=Nc1ccc2c(c1)OCCO2", "Potency": "active: 35.5 µM"}, {"smiles": "COc1ccc(N2CCN(C(=O)c3ccc(CNS(=O)(=O)c4ccc(C)cc4)cc3)CC2)cc1", "Potency": "inconclusive: 35.5 µM [inhibitor, partial curve]"}, {"smiles": "Cc1ccc(S(=O)(=O)N2CCOCC2)cc1C(=O)NC(=S)N(Cc1ccccc1)C(C)C", "Potency": "inconclusive: 39.8 µM [inhibitor, partial curve]"}, {"smiles": "CCCC(=O)OCC(=O)Nc1ccc2c(c1)OCO2", "Potency": "inactive"}, {"smiles": "COc1cccc2cc(C(C)N(CCCN3CCOCC3)C(=S)Nc3cc(C)cc(C)c3)oc12", "note": "(stereo not given)", "Potency": "inconclusive: 50.1 µM [inhibitor, partial curve]"}, {"smiles": "c1ccc(NC2=Nc3cccc4cccc2c34)cc1", "Potency": "inconclusive: 11.2 µM [inhibitor, full curve]"}, {"smiles": "COc1ccccc1CNC(=O)c1cc(-c2ccccc2)n(Cc2cc(C)no2)n1", "Potency": "inconclusive: 89.1 µM [inhibitor, single point]"}, {"smiles": "CSc1ccc(/C=N/N2CCN(Cc3ccc(Cl)cc3)CC2)cc1", "Potency": "active: 22.4 µM"}, {"smiles": "NC(=S)Nc1nc2ccccc2[nH]c1=O", "Potency": "inconclusive: 89.1 µM [inhibitor, single point]"}, {"smiles": "Cc1cc(/C=N/NC(=O)c2ccc(O)cc2)c(C)n1C1CC1", "Potency": "inconclusive: 79.4 µM [inhibitor, partial curve]"}, {"smiles": "CCN(CC)C(=O)CSc1nc2c(sc(=S)n2-c2ccccc2)c(=O)n1Cc1ccco1", "Potency": "active: 56.2 µM"}, {"smiles": "CC1(C)CC(=O)c2cc(OCC(=O)O)ccc2O1", "Potency": "inconclusive: 79.4 µM [inhibitor, partial curve]"}, {"smiles": "NNc1cc(C(=O)O)ccc1Cl", "Potency": "inconclusive: 89.1 µM [inhibitor, single point]"}, {"smiles": "COc1ccc(CCNC(=O)CCCc2ccccc2)cc1OC", "Potency": "inactive"}, {"smiles": "C=C(C)C1CC=C(C)/C(=N/NC(=O)c2cccc([N+](=O)[O-])c2)C1", "note": "(stereo not given)", "Potency": "inactive"}, {"smiles": "CCCOc1ccc(/C=N/Nc2ccccc2[N+](=O)[O-])c(O)c1", "Potency": "inconclusive: 28.2 µM [inhibitor, partial curve]"}, {"smiles": "CSc1nc(C)c2c(n1)N(c1ccc(O)cc1)CC2", "Potency": "inconclusive: 56.2 µM [inhibitor, partial curve]"}, {"smiles": "Cc1ccc(C2=Nc3ccccc3N(CC(=O)Nc3ccccc3F)C(=O)C2)cc1C", "Potency": "inactive"}, {"smiles": "CCC(CC)C1=NN2C(=N)/C(=C/c3ccc(OC(=O)c4ccco4)cc3)C(=O)N=C2S1", "Potency": "inactive"}, {"smiles": "Nc1ncnc2c1ncn2[C@@H]1O[C@H](COP(=O)(O)OP(=O)(O)OP(=O)(O)O)[C@@H](O)[C@H]1O", "Potency": "inactive"}, {"smiles": "COc1ccccc1NCC(=O)N/N=C/c1sccc1C", "Potency": "inconclusive: 44.7 µM [inhibitor, partial curve]"}, {"smiles": "COc1ccc(C(=S)N2CCOCC2)cc1OC(=O)c1ccc(C)cc1", "Potency": "inconclusive: 39.8 µM [inhibitor, partial curve]"}, {"smiles": "Cc1ccc(C)c(NC(=O)CN2C(=O)NC(C)(c3ccc4c(c3)OCCO4)C2=O)c1", "note": "(stereo not given)", "Potency": "inconclusive: 89.1 µM [inhibitor, single point]"}, {"smiles": "Oc1ccccc1C=NC1CCCCC1N=Cc1ccccc1O", "note": "(stereo not given)", "Potency": "inconclusive: 56.2 µM [inhibitor, partial curve]"}, {"smiles": "Cc1ccc(OCC(=O)N/N=C/c2cccn2C)cc1", "Potency": "inconclusive: 50.1 µM [inhibitor, partial curve]"}, {"smiles": "Cc1cccc(-n2cc(CN(C)Cc3nccn3C)c(-c3cccc(F)c3)n2)c1", "Potency": "inconclusive: 39.8 µM [inhibitor, partial curve]"}, {"smiles": "CNC(=S)N/N=C(\\C)c1ccc2c(c1)OCCO2", "Potency": "inconclusive: 79.4 µM [inhibitor, single point]"}, {"smiles": "CC(=O)c1ccc(NC(=O)C(Cc2ccccc2)n2cccc2)cc1", "note": "(stereo not given)", "Potency": "inactive"}, {"smiles": "COC(=O)[C@@]1(Cc2ccc(OC)cc2)[C@H]2c3cc(C(=O)N4CCCC4)n(Cc4ccc(OC)c(OC)c4)c3C[C@H]2CN1C(=O)c1ccccc1", "Potency": "inconclusive: 44.7 µM [inhibitor, partial curve]"}, {"smiles": "N#Cc1cnn(-c2ccccc2)c1NC(=O)CN1CCOCC1", "Potency": "inconclusive: 89.1 µM [inhibitor, single point]"}, {"smiles": "CCc1nnc(-n2nc(C)cc2-c2ccccc2)n1N", "Potency": "inactive"}, {"smiles": "COc1cc(C(=S)N2CCOCC2)cc(OC)c1OC(=O)c1cc([N+](=O)[O-])cc([N+](=O)[O-])c1", "Potency": "inconclusive: 39.8 µM [inhibitor, partial curve]"}]}]}
